The values below come from the supplement of paper PMC10126150.

This data set has as its system ATP. The data set can be described thus: switch fluorescence ratio, 500 uM ATP over buffer (Cy3 cluster intensity, sum of 5 cycles each) (fold (ratio)); higher = stronger signal-on switching upon ATP binding; sequences stand for … in TCGTCGGCAGCGTCAGATGTGTATAAGAGACAGTTTTTTTTTTTTTTTTTTTTTTTTT…TC. Particulars: aptamer strand: ATP DNA aptamer (quencher-CACCTGGGGGAGTATTGCGGAGGAAGG + anchor), 100 nM annealed; ATP concentration: 500 uM; one replicate. In outline:
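After annealing to 100 nM quencher-labelled ATP aptamer, Cy3-labelled switching-strand clusters on a modified Illumina MiSeq flow-cell were imaged in selection buffer. A second image followed after 15 min with 500 uM ATP at 22 °C, and five such buffer/ATP cycles were done, each separated by NaOH stripping and re-annealing. The fluorescence ratio, averaged per switch-domain sequence, is summed target-cycle over summed buffer-cycle Cy3 intensity per cluster, with clusters outside 100-1000 RFU excluded.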

Values marked as one replicate rest on one cluster of the flow cell; about a third of the high ones do not repeat.
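Note: ATP exposure 15 min at 22 °C before imaging.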

For TCGAGTGGGA, the switch fluorescence ratio came out at 1.02. On to ACAATGGGCC, for which the switch fluorescence ratio amounted to 1. On to TAATCGGTTC, for which the switch fluorescence ratio is 1.01. On to CGCAGAGCGG, for which the switch fluorescence ratio came out at 1.02.

On to GGTACCACGT, for which the switch fluorescence ratio amounted to 0.965. Next, TGTCAGTCGT: 1.01; CGGCTGAGT: 1.02. Turning to CCTTTCCGTC, the switch fluorescence ratio was found to be 1.49. The same measure for TGGTCTTTAC: 1.02; for ACTCGGCAAG: 6.42; for GTAGTATGTT: 0.931.

On to AAGGGTAAGG, for which the switch fluorescence ratio was found to be 1.01. The same measure for CCCCTCAACA: 1.11; for CACCCTCTAC: 1.22. For AAAGCCATGA, the switch fluorescence ratio worked out at 0.982. The same measure for GTGTATCGC: 1.03. Turning to ACCCTTATGA, the switch fluorescence ratio is 1.02. The same measure for TGCTTGTTGA: 1; for GGCTGCACCC: 1.03. On to CTGAGCAGGC, for which the switch fluorescence ratio worked out at 0.947. As to TTCATTGAAC, the switch fluorescence ratio was found to be 1.05. Next, GTGTGTTGCC: 0.992. Consider CGTAATAACT, for which the switch fluorescence ratio is 1.37. Next, TGACCTATAT: 1.04; TTGGTCTCTT: 0.995; GCAGGGTTT: 0.977. The same measure for GTCAGTTATT: 1; for TTTATAGTTG: 0.982.

Take CCCCTTCAA: the switch fluorescence ratio is 1. Next, ACGCCTTTCA: 1.03; TTATTCCGTC: 1.05. Consider GGTATCTCG, for which the switch fluorescence ratio was 0.954.

As for CTGGTGAGGT, the switch fluorescence ratio amounted to 1. For GTGCTAGGGG, the switch fluorescence ratio turned out to be 1.01. Take GAATCGGTTA: the switch fluorescence ratio turned out to be 0.991.

Regarding TACACCGTTC, the switch fluorescence ratio came to 1.09. Turning to AGATTCTTTC, the switch fluorescence ratio came out at 1.12. Take GATTGTTTTC: the switch fluorescence ratio is 0.999. On to ATCCGGCCTG, for which the switch fluorescence ratio stood at 1. Next, TTATTATGAA: 1.02; CGCGGCTGTT: 0.958; TCAATTTCAG: 1.02. Consider TGCAGTTCTG, for which the switch fluorescence ratio was 1.04. Next, GTAGTTTT: 0.94. With ACTTACTAAT, the switch fluorescence ratio was 1.12.

For the sequence TTTGTAATCG, the switch fluorescence ratio is 0.914. For the sequence TGAAGTACTG, the switch fluorescence ratio was 1.02. TTGATTGGAG: the switch fluorescence ratio amounted to 1.05.

GGGTTCGCGC: the switch fluorescence ratio was 1.03. The same measure for TCAAGCTGGA: 0.923. The same measure for AAACTGTT: 0.893; for TACCGTGGA: 1.02.

As to CGTATCAGAT, the switch fluorescence ratio was determined as 1.03.

Take ATTGACCGTA: the switch fluorescence ratio stood at 1.

As for TACGAATGTG, the switch fluorescence ratio stood at 0.936. CTCTTATGGC: the switch fluorescence ratio was 1.02. Consider GATTCTCTTG, for which the switch fluorescence ratio amounted to 0.968. The same measure for ACATGGGCAA: 0.969. Next, TATGCGCGTA: 0.986; GAGTGTTTAT: 1.01. As for CTTCCGGTTG, the switch fluorescence ratio worked out at 1.28.

As to TCCCACTCCA, the switch fluorescence ratio is 1.1. Next, GCAGCAGAAT: 1.15; TGCTATAGTC: 1.08. As for ACATAGGCAA, the switch fluorescence ratio is 0.999. Regarding TGGACGGGAT, the switch fluorescence ratio was 0.967.

Consider CTGCATTTTG, for which the switch fluorescence ratio was found to be 1.02. On to TTTGTCAAGT, for which the switch fluorescence ratio is 1.02.

In the case of CAGCGGCGCT, the switch fluorescence ratio was 1.03. Next, CGGATTTGCC: 0.989.

On to TAGTGGGCTA, for which the switch fluorescence ratio was found to be 1.

As to GGTTGAAGC, the switch fluorescence ratio was 1.15. The same measure for CTCTGTAGC: 1.35; for ACTCTAACGG: 1.18. The same measure for AGACCCGTTA: 1.02; for CCAATGTGGA: 1.01; for AGCTTTTAG: 0.962. The same measure for TGCTACTTCA: 1.04. On to TAGGGGAT, for which the switch fluorescence ratio came out at 0.975. The same measure for TATTGGGATG: 1.17; for TTGCTCTATG: 1.02; for TGGCTTGAAT: 1.04. Consider TACTTACGGT, for which the switch fluorescence ratio was 1.62.

Take AGTGGGGTGA: the switch fluorescence ratio is 0.995. Next, AGGCCCAAGG: 1.09. Next, AACCCAATCC: 1.61; CTTAGGTTGG: 0.994. The same measure for GGCCTGTTGC: 0.994; for GGTTTTTGCC: 0.99. Regarding GAGTGTATGG, the switch fluorescence ratio was determined as 1.02. The same measure for CATTGCAACC: 1.51.

For the sequence ACTCAATGT, the switch fluorescence ratio was 1.03. Next, AAGGTCTAAA: 0.979. As for TGCGTACGGT, the switch fluorescence ratio worked out at 1.01. TGGACGGAAT: the switch fluorescence ratio worked out at 2.2. Next, GAACTCCACA: 1.39. As for CCAAGTGCGT, the switch fluorescence ratio turned out to be 1.02. Next, GTTTCACGTC: 1.01; TGGTCGCTAA: 1.01.

Take ATAGTTAAGA: the switch fluorescence ratio stood at 1.03. The same measure for GGTCAGCAGC: 1.09.

Consider CTTAATATGG, for which the switch fluorescence ratio is 1.08.

Consider TCCGAGTCGT, for which the switch fluorescence ratio amounted to 1.13. On to TGTTCTCCGG, for which the switch fluorescence ratio stood at 1.02.

In the case of AGCTGCATCA, the switch fluorescence ratio is 1.1. For the sequence ACGAGCGACT, the switch fluorescence ratio turned out to be 1.08.

As to TGGAAGGAAA, the switch fluorescence ratio stood at 1. In the case of TATTGTAGGT, the switch fluorescence ratio was found to be 1.42. The same measure for ATCAATATTT: 0.993; for GGATCAGGAG: 1.03; for TGGAGCAGC: 1.18. Regarding GTTCCGAATT, the switch fluorescence ratio was 1.28. Consider AAAGCTTAGA, for which the switch fluorescence ratio turned out to be 0.958.

Consider AAGCATCCAC, for which the switch fluorescence ratio was found to be 1.23. Regarding GTTAATAGAC, the switch fluorescence ratio is 1. Next, TAGGCTCACT: 0.991; ACGCTTTGGG: 1.02. For TCCACGGAAC, the switch fluorescence ratio was determined as 1.17. On to CGTTTTATGG, for which the switch fluorescence ratio was found to be 0.995. Next, TCTTTTGATA: 0.989.
